# These are yes or no findings as the source states them, for the method shown. For part of these data: In cells and extracts the contact can be indirect. Some entries that bind do so weakly or less than the wild type.
# The chains behind the UniProt entries cited, without tags or fusion partners. Where a name states a change or a piece, a line headed by the entry shows the natural chain unless it says otherwise.
# UniProt Q9BU64: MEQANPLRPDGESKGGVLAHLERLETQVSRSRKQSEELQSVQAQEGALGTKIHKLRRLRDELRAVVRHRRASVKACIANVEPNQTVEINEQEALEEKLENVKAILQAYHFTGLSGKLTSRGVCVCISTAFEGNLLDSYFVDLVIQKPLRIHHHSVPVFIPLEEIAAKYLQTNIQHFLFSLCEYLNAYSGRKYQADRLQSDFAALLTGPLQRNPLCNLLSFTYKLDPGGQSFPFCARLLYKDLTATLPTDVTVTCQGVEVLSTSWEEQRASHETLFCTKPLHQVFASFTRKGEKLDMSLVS
# UniProt Q13352: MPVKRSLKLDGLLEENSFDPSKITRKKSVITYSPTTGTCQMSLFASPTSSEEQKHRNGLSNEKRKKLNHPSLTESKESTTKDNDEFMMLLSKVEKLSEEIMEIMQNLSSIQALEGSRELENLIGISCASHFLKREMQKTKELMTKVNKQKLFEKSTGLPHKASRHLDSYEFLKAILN
# UniProt Q6IPU0: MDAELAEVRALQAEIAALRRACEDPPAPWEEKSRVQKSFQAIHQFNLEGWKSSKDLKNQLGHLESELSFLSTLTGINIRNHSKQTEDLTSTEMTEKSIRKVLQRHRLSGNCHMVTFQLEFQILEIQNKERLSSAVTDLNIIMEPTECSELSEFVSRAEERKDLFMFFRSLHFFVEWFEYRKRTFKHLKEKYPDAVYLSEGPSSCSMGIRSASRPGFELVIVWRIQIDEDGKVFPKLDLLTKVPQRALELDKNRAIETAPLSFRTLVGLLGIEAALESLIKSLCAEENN
# UniProt Q9BS16: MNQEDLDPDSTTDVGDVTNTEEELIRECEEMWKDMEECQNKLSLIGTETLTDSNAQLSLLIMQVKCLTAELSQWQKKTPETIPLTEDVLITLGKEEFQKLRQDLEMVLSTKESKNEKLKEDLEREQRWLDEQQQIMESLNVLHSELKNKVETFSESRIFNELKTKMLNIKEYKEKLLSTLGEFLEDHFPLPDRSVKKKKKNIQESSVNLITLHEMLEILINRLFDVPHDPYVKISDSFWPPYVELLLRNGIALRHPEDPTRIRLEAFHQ
# UniProt Q71F23: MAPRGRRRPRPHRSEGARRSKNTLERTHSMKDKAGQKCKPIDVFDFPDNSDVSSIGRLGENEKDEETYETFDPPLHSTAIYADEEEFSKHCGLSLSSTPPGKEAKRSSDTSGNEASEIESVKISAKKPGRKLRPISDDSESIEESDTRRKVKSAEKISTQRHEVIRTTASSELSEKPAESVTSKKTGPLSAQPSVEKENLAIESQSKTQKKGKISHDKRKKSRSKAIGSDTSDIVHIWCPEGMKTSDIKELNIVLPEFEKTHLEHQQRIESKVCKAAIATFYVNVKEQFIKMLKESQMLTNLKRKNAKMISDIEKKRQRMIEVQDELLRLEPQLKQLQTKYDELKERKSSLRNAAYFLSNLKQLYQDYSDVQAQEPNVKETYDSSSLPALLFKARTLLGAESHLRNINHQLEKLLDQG
# UniProt Q8N0S6: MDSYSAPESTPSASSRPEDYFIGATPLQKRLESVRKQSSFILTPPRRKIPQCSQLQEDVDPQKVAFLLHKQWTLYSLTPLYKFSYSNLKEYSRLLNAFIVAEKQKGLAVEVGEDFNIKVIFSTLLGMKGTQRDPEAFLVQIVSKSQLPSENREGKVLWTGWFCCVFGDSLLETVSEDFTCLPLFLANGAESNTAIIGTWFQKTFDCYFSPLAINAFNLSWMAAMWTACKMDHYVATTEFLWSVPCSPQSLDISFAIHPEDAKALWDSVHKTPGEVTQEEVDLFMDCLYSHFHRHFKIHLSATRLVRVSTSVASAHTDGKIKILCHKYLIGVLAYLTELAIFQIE
# UniProt Q96H22: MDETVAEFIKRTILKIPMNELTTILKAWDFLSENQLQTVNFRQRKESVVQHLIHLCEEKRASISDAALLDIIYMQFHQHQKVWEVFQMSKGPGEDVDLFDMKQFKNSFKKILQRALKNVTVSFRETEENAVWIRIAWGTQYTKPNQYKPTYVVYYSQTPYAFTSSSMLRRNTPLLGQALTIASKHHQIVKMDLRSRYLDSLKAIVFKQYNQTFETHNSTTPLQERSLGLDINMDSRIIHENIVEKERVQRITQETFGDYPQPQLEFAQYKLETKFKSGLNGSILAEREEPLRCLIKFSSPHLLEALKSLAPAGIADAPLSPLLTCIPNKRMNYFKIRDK
# UniProt Q7L2Z9: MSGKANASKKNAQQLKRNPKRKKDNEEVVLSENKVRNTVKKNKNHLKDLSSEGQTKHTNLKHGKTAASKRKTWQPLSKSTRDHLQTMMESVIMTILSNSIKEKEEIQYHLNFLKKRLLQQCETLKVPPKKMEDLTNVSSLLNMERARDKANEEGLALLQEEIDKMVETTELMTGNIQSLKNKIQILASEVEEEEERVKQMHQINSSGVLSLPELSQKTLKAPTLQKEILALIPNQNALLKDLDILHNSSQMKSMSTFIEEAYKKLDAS
# Tests used:
# [1] = target: CENP-O (yeast two-hybrid) (human) (UniProt Q9BU64); assay: two-hybrid; yeast two-hybrid; methods not told
# [2] = target: CENP-O in the F3H assay (EGFP-CENP-O as bait, mCherry-CENP-O as prey) (human) (UniProt Q9BU64); assay: fluorescent three-hybrid (F3H); EGFP fusion (bait) held at a lac operator repeat array by LacI-GBP in BHK cells, mCherry fusion (prey) co-expressed; fixed after about 16 hrs, confocal microscopy
# [3] = target: CENP-C in the F3H assay (EGFP-tagged as bait, mCherry-tagged as prey) (human) (UniProt Q03188); assay: as above
# [4] = target: CENP-R in the F3H assay (EGFP-tagged as bait, mCherry-tagged as prey) (human) (UniProt Q13352); assay: as above
# [5] = target: CENP-P in the F3H assay (EGFP-CENP-P as bait, mCherry-CENP-P as prey) (human) (UniProt Q6IPU0); assay: as above
# [6] = target: CENP-K in the F3H assay (EGFP-tagged as bait, mCherry-tagged as prey) (human) (UniProt Q9BS16); assay: as above
# [7] = target: CENP-U in the F3H assay (EGFP-tagged as bait, mCherry-tagged as prey) (human) (UniProt Q71F23); assay: as above
# [8] = target: CENP-L in the F3H assay (EGFP-tagged as bait, mCherry-tagged as prey) (human) (UniProt Q8N0S6); assay: as above
# [9] = target: CENP-N in the F3H assay (EGFP-tagged as bait, mCherry-tagged as prey) (human) (UniProt Q96H22); assay: as above
# [10] = target: CENP-Q in the F3H assay (EGFP-tagged as bait, mCherry-tagged as prey) (human) (UniProt Q7L2Z9); assay: as above
# [11] = target: mCherry-CENP-K (human) (UniProt Q9BS16); assay: FRET or BRET; acceptor photo-bleaching FRET, EGFP donor and mCherry acceptor, at kinetochores of living co-transfected HEp-2 cells in interphase
# [12] = target: mCherry-CENP-P (UniProt Q6IPU0); assay: as above
# [13] = target: CENP-P-mCherry (human) (UniProt Q6IPU0); assay: as above
# [14] = target: CENP-R-mCherry (human) (UniProt Q13352); assay: as above
# [15] = target: mCherry-CENP-R (human) (UniProt Q13352); assay: as above
binding [2],binding [3],binding [4],binding [5],binding [8],Substance,other results
–,–,–,–,–,CENP-K (yeast two-hybrid) (from UniProt Q9BS16 1-269),binding [1]: binds
binds,no binding,binds,no binding,–,"CENP-K in the F3H assay (EGFP-tagged as bait, mCherry-tagged as prey) (from UniProt Q9BS16 1-269)",binding [6]: binds weakly
no binding,–,binds,no binding,no binding,"CENP-L in the F3H assay (EGFP-tagged as bait, mCherry-tagged as prey) (from UniProt Q8N0S6 1-344)",binding [7]: binds
–,–,–,–,–,"CENP-L in the F3H assay (EGFP-tagged as bait, mCherry-tagged as prey) (from UniProt Q8N0S6 1-344) (other; other documents disagree on this pair)",binding [9]: no binding
no binding,–,–,no binding,–,"CENP-N in the F3H assay (EGFP-tagged as bait, mCherry-tagged as prey) (from UniProt Q96H22 1-339)",binding [10]: no binding
no binding,no binding,binds,–,no binding,"CENP-O in the F3H assay (EGFP-CENP-O as bait, mCherry-CENP-O as prey) (from UniProt Q9BU64 1-300)",binding [9]: no binding; binding [6]: binds
–,–,–,–,–,CENP-O-EGFP (from UniProt Q9BU64 1-300),binding [11]: binds weakly
–,no binding,binds weakly,no binding,no binding,"CENP-P in the F3H assay (EGFP-CENP-P as bait, mCherry-CENP-P as prey) (from UniProt Q6IPU0 1-288)",binding [7]: binds; binding [9]: no binding; binding [6]: no binding
–,no binding,binds,–,–,"CENP-Q in the F3H assay (EGFP-tagged as bait, mCherry-tagged as prey) (from UniProt Q7L2Z9 1-268)",binding [9]: no binding
binds,no binding,–,binds weakly,binds,"CENP-R in the F3H assay (EGFP-tagged as bait, mCherry-tagged as prey) (from UniProt Q13352 1-177)",binding [7]: binds; binding [10]: binds; binding [6]: binds weakly
–,–,–,–,–,CENP-R-EGFP (from UniProt Q13352 1-177),binding [11]: binds
–,no binding,binds,binds,binds weakly,"CENP-U in the F3H assay (EGFP-tagged as bait, mCherry-tagged as prey) (from UniProt Q71F23 1-418)",–
–,–,–,–,–,CENP-U-EGFP (from UniProt Q71F23 1-418),binding [12]: binds
–,–,–,–,–,EGFP-CENP-O (from UniProt Q9BU64 1-300),binding [11]: binds
–,–,–,–,–,EGFP-CENP-R (from UniProt Q13352 1-177),binding [11]: binds
–,–,–,–,–,EGFP-CENP-U (from UniProt Q71F23 1-418),binding [13]: binds; binding [14]: binds; binding [15]: binds; binding [12]: binds weakly
